Experimental data as given in PubChem BioAssay AID504333 (National Center for Advancing Translational Sciences (NCATS), 2011).
The campaign covered roughly 360,000 compounds. About 16,000 (4.4%) were called active. Inconclusive means that the source gave no clear call. Such entries were picked first, then a sample of the others. The call rests on the fitted dose curve; in most records, active means well fitted inhibition curve with a large enough effect; inconclusive means small, poorly fitted or top-dose-only effect; inactive means no such curve, though single readings can be large or run the other way. A potency beside an inconclusive call is a rough fit, not a confirmed value.

Molecular target: Bromodomain adjacent to zinc finger domain protein 2B (Homo sapiens) (UniProt Q9UIF8)
Chain of UniProt Q9UIF8 (Q9UIF8 whole entry, looked up, the tested form may be a part): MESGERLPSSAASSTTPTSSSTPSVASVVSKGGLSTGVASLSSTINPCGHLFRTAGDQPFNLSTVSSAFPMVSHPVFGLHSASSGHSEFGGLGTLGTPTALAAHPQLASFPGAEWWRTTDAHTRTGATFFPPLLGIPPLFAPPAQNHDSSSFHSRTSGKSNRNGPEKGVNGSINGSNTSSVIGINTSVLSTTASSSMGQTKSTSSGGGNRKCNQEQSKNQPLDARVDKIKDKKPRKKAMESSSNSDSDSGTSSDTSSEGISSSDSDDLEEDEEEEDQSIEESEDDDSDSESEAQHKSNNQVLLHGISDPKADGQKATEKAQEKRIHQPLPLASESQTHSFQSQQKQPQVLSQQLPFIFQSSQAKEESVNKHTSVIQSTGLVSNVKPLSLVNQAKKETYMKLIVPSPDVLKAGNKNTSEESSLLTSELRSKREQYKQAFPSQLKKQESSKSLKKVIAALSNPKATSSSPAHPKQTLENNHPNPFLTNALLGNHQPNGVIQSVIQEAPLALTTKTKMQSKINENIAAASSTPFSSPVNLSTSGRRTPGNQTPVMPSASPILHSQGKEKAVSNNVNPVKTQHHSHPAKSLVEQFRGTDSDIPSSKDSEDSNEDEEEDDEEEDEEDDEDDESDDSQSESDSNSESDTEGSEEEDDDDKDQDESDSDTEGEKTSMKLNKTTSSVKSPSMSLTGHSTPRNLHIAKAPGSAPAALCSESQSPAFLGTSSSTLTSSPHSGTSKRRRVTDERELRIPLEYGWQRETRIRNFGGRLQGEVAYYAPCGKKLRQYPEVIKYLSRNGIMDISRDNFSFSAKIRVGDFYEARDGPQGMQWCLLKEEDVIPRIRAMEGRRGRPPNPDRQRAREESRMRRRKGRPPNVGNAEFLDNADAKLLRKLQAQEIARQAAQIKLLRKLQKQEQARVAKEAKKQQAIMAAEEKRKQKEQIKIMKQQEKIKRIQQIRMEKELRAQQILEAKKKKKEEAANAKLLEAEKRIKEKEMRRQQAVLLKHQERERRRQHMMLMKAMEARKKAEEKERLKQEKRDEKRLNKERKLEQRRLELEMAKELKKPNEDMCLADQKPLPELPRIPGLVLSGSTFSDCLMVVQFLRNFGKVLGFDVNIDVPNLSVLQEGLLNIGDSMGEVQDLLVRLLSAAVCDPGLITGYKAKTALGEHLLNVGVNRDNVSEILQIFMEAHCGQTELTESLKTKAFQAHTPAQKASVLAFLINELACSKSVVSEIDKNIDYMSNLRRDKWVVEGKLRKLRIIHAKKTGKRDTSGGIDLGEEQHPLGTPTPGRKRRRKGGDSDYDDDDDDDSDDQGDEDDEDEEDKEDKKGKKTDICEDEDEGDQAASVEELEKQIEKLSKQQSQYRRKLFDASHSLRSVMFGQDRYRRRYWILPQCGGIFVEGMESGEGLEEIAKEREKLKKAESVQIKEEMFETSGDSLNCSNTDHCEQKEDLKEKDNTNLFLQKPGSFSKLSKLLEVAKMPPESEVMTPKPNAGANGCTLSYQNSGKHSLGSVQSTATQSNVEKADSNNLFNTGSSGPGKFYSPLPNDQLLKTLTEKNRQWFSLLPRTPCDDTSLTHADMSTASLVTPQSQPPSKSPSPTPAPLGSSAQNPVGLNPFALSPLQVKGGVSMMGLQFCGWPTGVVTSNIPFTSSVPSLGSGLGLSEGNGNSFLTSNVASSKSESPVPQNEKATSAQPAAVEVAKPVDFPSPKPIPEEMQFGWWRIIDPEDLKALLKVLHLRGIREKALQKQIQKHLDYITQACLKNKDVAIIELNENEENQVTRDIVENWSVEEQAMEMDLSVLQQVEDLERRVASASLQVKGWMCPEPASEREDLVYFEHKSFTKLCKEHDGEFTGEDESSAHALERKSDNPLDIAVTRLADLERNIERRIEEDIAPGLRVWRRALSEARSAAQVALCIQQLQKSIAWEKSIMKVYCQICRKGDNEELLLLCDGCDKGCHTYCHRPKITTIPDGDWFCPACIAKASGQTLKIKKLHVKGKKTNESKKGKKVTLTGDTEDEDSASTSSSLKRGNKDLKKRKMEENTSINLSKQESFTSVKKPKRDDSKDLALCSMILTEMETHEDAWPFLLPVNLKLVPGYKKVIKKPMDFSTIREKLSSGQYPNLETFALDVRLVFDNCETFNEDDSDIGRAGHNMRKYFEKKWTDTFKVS
Assay: qHTS Assay for Inhibitors of BAZ2B; further: nearly all actives have a fitted effect of over 60% in size
Conditions: AlphaScreen BAZ2B-H3K14Ac peptide displacement; activity change, negative = inhibition: at 114 µM (top of the series)
In short: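 AlphaScreen displacement of biotin-H3(5-23)K14Ac peptide (50 nM final) from BAZ2B (50 nM final) in PBS pH 7.4, 0.01% Tween-20; complex preformed 30 min RT, then compounds (top 110 uM) 30 min RT, beads 20 min dark.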
On the % scale 0 is the no-effect control and ±100 the full control effect; potency means the concentration at half of the fitted maximal effect; tags describe the fitted curve by direction and shape.

Row | SMILES | Potency | activity change, negative = inhibition
1 | CC(C)(C)N1C(=O)NC(=O)/C(=C\c2ccc3c(c2)CCN3CCCCl)C1=O | inconclusive: 50.1 µM [inhibitor, partial curve] | –
2 | COc1ccccc1N1CCN(Cc2ccc(Cl)cc2Cl)CC1 | inconclusive: 35.5 µM [inhibitor, single point] | –
3 | c1cncc(CNC2=NCCCCC2)c1 | active: 79.4 µM | –
4 | FC(F)(F)c1cccc(C2NCc3ccccc3-n3cccc32)c1 (centres undefined) | inconclusive: 50.1 µM [inhibitor, partial curve] | –
5 | COc1cccc(CCNCc2ccc(SC)cc2)c1 | active: 50.1 µM | –
6 | Cc1cc(C)nc(NC2=NCCS2)n1 | inconclusive: 89.1 µM [inhibitor, single point] | –
7 | O=C1OC(c2ccc(Br)cc2)=N/C1=C\N1CC2CC(C1)c1cccc(=O)n1C2 (centres undefined) | inconclusive: 50.1 µM [inhibitor, partial curve] | –
8 | CC(C)c1ccc(-n2c(O)c(/C=N/NC(=O)c3ccccc3O)c(=O)[nH]c2=S)cc1 | active: 50.1 µM | –
9 | CCN(CC)CCCN=C(C)c1c(O)n(-c2ccccc2)c(=O)[nH]c1=O | – | inactive: 2.28%
10 | Cc1[nH]c2ccccc2c1C1=CCNCC1 | inconclusive: 79.4 µM [inhibitor, single point] | –
11 | Clc1ccc(C2NCCc3[nH]cnc32)cc1 (centres undefined) | inconclusive: 79.4 µM [inhibitor, partial curve] | –
12 | O=C(COc1ccccc1)N1CCN(C/C=C/c2ccccc2)CC1 | – | inactive: -8.65%
13 | CC(C)Cc1nc2cccnc2n1C1CCNCC1 | – | inactive: -4.53%
14 | CCOc1ccc(CN(CCc2ccc3c(c2)OCO3)Cc2ccc(C)cc2)cc1 | inconclusive: 100 µM [inhibitor, single point] | –
15 | O[C@@H]1CCCC[C@H]1N1CCC(c2ccccc2)CC1 | inconclusive: 89.1 µM [inhibitor, single point] | –
16 | COc1ccc(N2CCN(CCCNC(=O)c3cnn(-c4ccc(F)cc4)c3-n3cccc3)CC2)cc1 | inconclusive: 89.1 µM [inhibitor, single point] | –
17 | O=Cc1cn(Cc2ccccc2[N+](=O)[O-])c2ccccc12 | inconclusive: 50.1 µM [inhibitor, partial curve] | –
18 | COc1ccc(-n2c(O)c(/C=C3\C=Nc4ccc(Br)cc43)c(=O)[nH]c2=O)c(OC)c1 | inconclusive: 31.6 µM [inhibitor, partial curve] | –
19 | CNS(=O)(=O)c1ccc(N=Cc2c(O)n(-c3ccc(C)cc3)c(=O)[nH]c2=O)cc1 | – | inactive: -14.3%
20 | CCn1c(-c2nn(-c3ccccc3)ccc2=O)n[nH]c1=S | inconclusive: 79.4 µM [inhibitor, single point] | –
21 | CCCC1=Nc2cc(C(=O)NCCCN(CC)CC)ccc2Sc2ccccc21 | – | inactive: -27.6%
22 | CC1CCCN(CC(=O)c2ccc(Cl)c(Cl)c2)C1 (centres undefined) | inconclusive: 56.2 µM [inhibitor, partial curve] | –
23 | O=C(OCC(=O)c1ccc([N+](=O)[O-])cc1)/C(=C\c1ccc(Cl)cc1)NC(=O)c1ccccc1 | – | inactive: -18.4%
24 | COC(=O)C1=C(c2cccc(C#N)c2)C[C@@H]2CC[C@H]1N2C(=O)NC(C)C | inconclusive: 89.1 µM [inhibitor, single point] | –
25 | O=C1NC(=O)N(c2ccccc2)C(=O)/C1=C\c1ccc2c3c(cccc13)CC2 | inconclusive: 89.1 µM [inhibitor, single point] | –

Row | SMILES | Potency | activity change, negative = inhibition
26 | O=C1NC(=O)N(Cc2ccc(F)cc2)C(=O)/C1=C\c1ccc([N+](=O)[O-])s1 | active: 35.5 µM | –
27 | N#CCCn1cc(C(=O)Nc2ccc([N+](=O)[O-])cc2)c(-c2ccc3c(c2)OCCO3)n1 | inconclusive: 50.1 µM [inhibitor, partial curve] | –
28 | Cn1c(O)c(C=NCCN2CCN(C(=O)c3ccccc3)CC2)c(=O)n(C)c1=O | inconclusive: 100 µM [inhibitor, single point] | –
29 | COc1ccc(Nc2c(-c3cc(Br)ccc3O)nc3ncccn23)cc1OC | active: 14.1 µM | –
30 | O=C(Cc1ccccc1)N1CCN(Cc2cccnc2)CC1 | active: 31.6 µM | –
31 | O=S(=O)(c1ccc(Cl)cc1)N1CN2CCN(C2)C1 | inconclusive: 89.1 µM [inhibitor, single point] | –
32 | CCC1(C)OC(c2ccccc2)=C/C(=C/C=C2C(=O)NC(=O)NC2=O)O1 (centres undefined) | active: 39.8 µM | –
33 | CN1/C(=C\C=C2C(=O)NC(=S)NC2=O)C(C)(C)c2ccccc21 | inconclusive: 70.8 µM [inhibitor, partial curve] | –
34 | CCCCOP(=O)(OCCCC)/C(C#N)=C(/C)O | inconclusive: 100 µM [inhibitor, single point] | –
35 | O=c1[nH]c(=O)n(CCC2=CCCCC2)c(O)c1/C=N/Nc1cccc2ccccc12 | inconclusive: 63.1 µM [inhibitor, partial curve, poor fit] | –
36 | CCCCP(=O)(O)CCC(=O)O | inconclusive: 89.1 µM [inhibitor, single point] | –
37 | COC(=O)c1ccc(N=C(c2ccccc2)c2c(O)n(C)c(=O)n(C)c2=O)cc1 | – | inactive: -18.2%
38 | CN(C)CC1CCCCC1=O (centres undefined) | – | inactive: -2.32%
39 | C=Cn1c(P(=S)(N2CCOCC2)N2CCOCC2)cc2c1CCCC2 | inconclusive: 50.1 µM [inhibitor, partial curve] | –
40 | O=c1[nH]c(=O)n(-c2ccc(Br)cc2)c(O)c1C=NCCN1CCCCC1 | – | inactive: -1.88%
41 | COc1ccc(Cc2nccc3cc(OC)c(OC)cc23)cc1OC | inconclusive: 89.1 µM [inhibitor, partial curve] | –
42 | COc1ccc(OCC#CCN2CCNCC2)cc1 | active: 31.6 µM | –
43 | CCN1/C(=C\C=C\C2=[N+](CC)c3ccccc3C2(C)C)C(C)(C)c2ccccc21 | active: 11.2 µM | –
44 | COc1ccc(CNCCc2ccc3c(c2)OCO3)cc1Br | active: 50.1 µM | –
45 | Oc1ccc(/C=N/NP(=S)(c2ccccc2)c2ccccc2)cc1O | inconclusive: 50.1 µM [inhibitor, partial curve] | –
46 | CCN(CC)C(=O)c1ccc(NC(=O)c2ccc(-c3nn(C)c(=O)c4ccccc34)cc2)cc1 | inconclusive: 89.1 µM [inhibitor, single point] | –
47 | CN1CCN(CCC(C#N)(c2ccccc2)c2ccccc2)CC1 | inconclusive: 89.1 µM [inhibitor, single point] | –
48 | O=c1[nH]c(O)c(/C=C2\C=Nc3ccc(OCc4ccccc4)cc32)c(=O)[nH]1 | inconclusive: 89.1 µM [inhibitor, single point] | –
49 | N#CC1=C(N)Oc2c(c(=O)oc3ccccc23)C1c1ccc([N+](=O)[O-])o1 (centres undefined) | inconclusive: 89.1 µM [inhibitor, single point] | –
50 | COc1cc(CN2CC3CC(C2)c2cccc(=O)n2C3)cc(OC)c1OC (centres undefined) | active: 79.4 µM | –

Row | SMILES | Potency | activity change, negative = inhibition
51 | CCCCC(=O)N/N=C/c1c(O)n(-c2ccccc2)c(=O)[nH]c1=O | active: 50.1 µM | –
52 | COc1ccccc1N1CCN(Cc2ccccc2F)CC1 | active: 44.7 µM | –
53 | O=C1OCCN1P(=O)(c1ccccc1)c1ccccc1 | – | inactive: -5.08%
54 | Cc1ccccc1-n1nc(C)c2c1NC(=O)CSC2c1ccc(Cl)cc1 (centres undefined) | inconclusive: 44.7 µM [inhibitor, partial curve] | –
55 | Cc1ccc(OCC(=O)NCCN2CCN(C(=O)COc3ccc(C)cc3)CC2)cc1 | – | inactive: -15.5%
56 | COc1ccc(C(O)P(=O)(OC(C)C)OC(C)C)cc1 (centres undefined) | inconclusive: 56.2 µM [inhibitor, partial curve] | –
57 | CCc1ccc(N2C(=O)NC(=O)/C(=C/c3cccn3CCOc3ccc(C)cc3)C2=O)cc1 | inconclusive: 79.4 µM [inhibitor, single point] | –
58 | O=c1[nH]c2c(s1)C(c1cccnc1)C1C3CCC(C3)C1S2 (centres undefined) | inconclusive: 79.4 µM [inhibitor, single point] | –
59 | O=C(c1ccc(F)cc1)N1CCC(N2CCCCCC2)CC1 | active: 50.1 µM | –
60 | COc1cc(C)c(CNCCc2c[nH]c3ccccc23)cc1C | active: 39.8 µM | –
61 | O=C(c1cccc(Cl)c1)C1CCCN(Cc2cccc3cnccc23)C1 (centres undefined) | inconclusive: 79.4 µM [inhibitor, single point] | –
62 | COc1ccc(CCNCc2cccn2C)cc1 | inconclusive: 89.1 µM [inhibitor, single point] | –
63 | COc1ccc(CCNc2nccn(-c3ccc(C)c(C)c3)c2=O)cc1OC | active: 44.7 µM | –
64 | C/C(=N\Nc1ccccc1)c1c(O)n(-c2ccccc2)c(=O)[nH]c1=O | – | inactive: -17.5%
65 | CN1CC(C(=O)c2ccc(F)cc2)C(c2c(F)cccc2Cl)C1 (centres undefined) | – | inactive: -12.7%
66 | Oc1ccc(Cl)c(Cl)c1 | inconclusive: 100 µM [inhibitor, single point] | –
67 | COc1cccc(-c2nc(CS(=O)CC(=O)N3CCC4(CC3)OCCO4)c(C)o2)c1 (centres undefined) | inconclusive: 89.1 µM [inhibitor, single point] | –
68 | CN(C)c1ccc(NC(=O)c2sc3nc4c(cc3c2N)N2CCC4CC2)cc1 | inconclusive: 89.1 µM [inhibitor, partial curve] | –
69 | O=C(N/N=C/c1c(O)n(CCc2ccccc2)c(=O)[nH]c1=O)c1ccccc1 | active: 79.4 µM | –
70 | Cc1cc(C=C2C(=O)N(C)C(=S)N(C)C2=O)c(C)n1C1CCCCC1 | inconclusive: 50.1 µM [inhibitor, partial curve] | –
71 | O=C(Cc1ccccc1)N1CCN(Cc2cccc(Cl)c2)CC1 | inconclusive: 79.4 µM [inhibitor, single point] | –
72 | CCCOP(=O)(OCCC)C(NC(=O)c1cc(OC)c(OC)c(OC)c1)c1ccccc1 (centres undefined) | – | inactive: 13.6%
73 | S=C(c1ccc(Cl)cc1)N1CCOCC1 | – | inactive: -2.27%
74 | O=C(N/N=C\C1C(=O)NC(=S)N(c2ccccc2)C1=O)c1ccc(O)cc1 (centres undefined) | active: 25.1 µM | –
